# In the supplement of paper PMC4723716:
# ± gives the uncertainty stated by the source. Whole data set: some 9,900 compounds, median “viability index relative to DMSO control” near 1, cut for the lowest 2% near 0.85. This is one part of the list.
# Tested on: Plasmodium falciparum NF54 stage V gametocytes
# Experiment: viability index relative to DMSO control (fraction); higher = less gametocyte killing
# Conditions: 2.5 µM, library set: Broad Institute DOS, incubation time: 72 h
# Summary of the method: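 In 1,536-well plates, 10 µl of serum-free medium holding P. falciparum NF54 stage V gametocytes (0.75% gametocytemia, 1.25% hematocrit) received compound at 2.5 µM for 72 hr at 37°C in low oxygen. After one to two hours with 3 µl of 2.5 µM MitoTracker Red CMXRos containing 0.13% saponin, red particles of 20–70 µm2 were counted in a single field per well. Viability index is reported as the particle count over the plate mean of wells treated with solvent only.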
row,SMILES,viability index
1,COc1ccc2c3c([nH]c2c1)[C@@H](CO)N(C[C@]31CN(C)C1)C(=O)c1ccncc1,0.947 ± 0.14
2,O=C1C[C@@H](c2ccccc2)C(=O)N[C@@H](c2ccccc2)C/C=C\C[C@H](c2ccccc2)N1,1.08 ± 0.048
3,C/C=C/c1ccc([C@H]2[C@@H]3CN(C(=O)Nc4ccc(C(F)(F)F)cc4)C[C@H]2N3)cc1,1 ± 0.032
4,CCCC(=O)N1C[C@H]2[C@@H](c3ccccc31)[C@@H](CO)N2Cc1cocn1,1.012 ± 0.0066
5,COc1ccccc1NC(=O)N1C[C@@H](C)[C@H](OC)CN(C)C(=O)c2ccc(NC(=O)c3cc(C)on3)cc2OC[C@H]1C,1.04 ± 0.035
6,CO[C@H]1CN(C)C(=O)c2cc(NC(=O)c3ccc4c(c3)OCO4)ccc2OC[C@H](C)N(CCC(F)(F)F)C[C@@H]1C,1.16 ± 0.044
7,C[C@@H]1CN([C@H](C)CO)C(=O)CCCn2nncc2CO[C@@H]1CN(C)S(=O)(=O)c1ccc(Oc2ccccc2)nc1,1.05 ± 0.026
8,CC(C)(C)[S@@](=O)N1Cc2cc(C(=O)N3CCOCC3)nc(-c3cccc(-c4ccccc4F)c3)c2[C@H]1CCO,1.08 ± 0.034
9,CN(C)C(=O)C[C@@H]1CC[C@H]2[C@H](COc3ccc(NC(=O)C4CCCCC4)cc3C(=O)N2C)O1,1.07 ± 0.072
10,O=C(NCC[C@@H]1CC[C@H](NC(=O)C2CCOCC2)[C@@H](CO)O1)c1cc(Cl)cc(Cl)c1,0.979 ± 0.036
11,Cc1ccc(S(=O)(=O)N(C)C[C@H]2Oc3cc(C#CC4CCCC4)ccc3S(=O)(=O)N([C@H](C)CO)C[C@@H]2C)cc1,0.676 ± 0.26
12,C[C@@H]1CN([C@H](C)CO)C(=O)Cc2cc(NC(=O)Nc3ccc(F)cc3)ccc2O[C@H]1CN(C)S(C)(=O)=O,0.939 ± 0.16
13,COc1ccc2c3c([nH]c2c1)[C@@H](CO)N(CC1CC1)C[C@]31CN(Cc2cc(F)ccc2F)C1,0.983 ± 0.058
14,CCC(=O)N1Cc2cc(C(=O)NCc3cccc(F)c3)nc(-c3cccc(C4=CCCC4)c3)c2[C@H]1CCO,1.06 ± 0.016
15,C[C@@H]1CN([C@@H](C)CO)C(=O)c2cc(C#Cc3ccccc3)cnc2O[C@H]1CN(C)C(=O)c1ccccc1,1 ± 0.091
16,CCCNC(=O)C[C@@H]1CC[C@H]2[C@@H](COC[C@@H](O)CN2C(=O)Nc2ccc(Cl)c(Cl)c2)O1,1.02 ± 0.0087
17,CC(C)[C@H]1COCc2cn(nn2)CCC[C@H](C)C(=O)N1,0.99 ± 0.068
18,COc1cccc(C#Cc2ccc3c(c2)O[C@H](CN(C)C(=O)CN2CCOCC2)[C@H](C)CN([C@H](C)CO)S3(=O)=O)c1,0.972 ± 0.057
19,COCC(=O)N1CC[C@@H]2[C@H]1c1cc(-c3cccc(F)c3)ccc1N(C)[C@@H]2CO,1.086 ± 0.0022
20,C[C@@H]1CCCCO[C@H](CN(C)Cc2ccc(Cl)c(Cl)c2)[C@@H](C)CN([C@H](C)CO)C(=O)c2cc(NC(=O)CCCCCC(=O)Nc3ccccc3N)ccc2O1,0.858 ± 0.14
21,C[C@H](NC(=O)C[C@@H]1CC[C@@H]2[C@H](COC[C@@H](O)CN2C(=O)Nc2cccc(Cl)c2)O1)c1ccccc1,1.06 ± 0.072
22,C[C@@H]1CN([C@H](C)CO)C(=O)c2cc(N(C)C)ccc2O[C@@H](C)CCCCO[C@H]1CN(C)S(=O)(=O)c1cn(C)cn1,0.994 ± 0.026

row,SMILES,viability index
1,Cc1noc(C)c1S(=O)(=O)Nc1ccc2c(c1)C(=O)N([C@H](C)CO)C[C@@H](C)[C@H](CN(C)C(=O)Nc1cccc3ccccc13)OCCCC[C@@H](C)O2,1.01 ± 0.079
2,CCS(=O)(=O)N[C@H]1C=C[C@@H](CC(=O)O)O[C@@H]1CO,0.95175 ± 0.00016
3,C/C=C/c1ccc([C@@H]2[C@@H](CO)N3CCCCN(S(=O)(=O)c4ccc(OC)cc4)C[C@@H]23)cc1,0.993 ± 0.055
4,CN(C)CC(=O)N1[C@H](CO)[C@H](c2ccccc2-c2ccc(C(=O)N(C)C)cc2)[C@@H]1C#N,1.1 ± 0.033
5,COCC(=O)N1CC2(C1)[C@H](c1ccccc1)[C@@H](CO)N2CCC(F)(F)F,1.08 ± 0.069
6,O=C(C[C@@H]1C=C[C@H](NC(=O)c2ccncc2)[C@@H](CO)O1)NCC1CC1,1.07 ± 0.07
7,O=S(=O)(c1ccc(F)cc1)N1CCCCN2[C@H](CO)[C@@H](c3ccc(-c4cncnc4)cc3)[C@@H]2C1,0.988 ± 0.048
8,COC(=O)C[C@H]1CC[C@H]2[C@@H](COC[C@H](O)CN2S(=O)(=O)c2cn(C)cn2)O1,1.04 ± 0.021
9,CN1C(=O)c2cc(NC(=O)c3cccc(C(F)(F)F)c3)ccc2OC[C@@H]2O[C@H](CC(=O)NCCN3CCCC3)CC[C@H]21,0.967 ± 0.15
10,CCS(=O)(=O)N1C[C@@]2(C1)CN([C@@H](CO)c1[nH]c3cc(OC)ccc3c21)C(=O)c1ccc(F)cc1,0.965 ± 0.1
11,Cc1noc(C)c1NC(=O)N1C[C@@H](O)COC[C@@H]2O[C@H](CC(=O)N[C@H]3CCN(Cc4ccccc4)C3)CC[C@H]21,0.998 ± 0.064
12,Cc1ccccc1S(=O)(=O)N1C[C@H](O)COC[C@@H]2O[C@H](CC(=O)N3CCCCC3)CC[C@H]21,0.945 ± 0.078
13,COc1cccc(-c2ccc([C@@H]3[C@H]4CNC[C@@H]3N4Cc3nccs3)cc2)c1,0.983 ± 0.079
14,CO[C@@H]1CN(C)C(=O)c2ccc(NC(=O)c3ccccc3F)cc2OC[C@H](C)N(C)C[C@H]1C,1.1 ± 0.15
15,COc1ccc(S(=O)(=O)Nc2ccc3c(c2)OC[C@@H](C)N(Cc2cc(F)ccc2F)C[C@@H](C)[C@H](OC)CN(C)C3=O)cc1,1.058 ± 0.0098
16,C[C@H](CO)N1C[C@H](C)[C@H](CN(C)C(=O)NC2CCCCC2)Oc2ccc(N(C)C)cc2CC1=O,1.13 ± 0.1
17,C[C@@H]1CN([C@@H](C)CO)C(=O)CCCn2cc(nn2)CO[C@H]1CN(C)Cc1ccccc1,1.11 ± 0.093
18,C[C@@H]1CN([C@H](C)CO)C(=O)c2cccc(NS(C)(=O)=O)c2O[C@H]1CN(C)Cc1ccc(-c2ccccc2)cc1,0.916 ± 0.13
19,CN1c2ccc(Br)cc2[C@@H]2[C@@H](CCN2S(=O)(=O)c2ccccc2F)[C@H]1CO,1.04 ± 0.1
20,CO[C@@H]1CN(C)C(=O)c2ccc(NC(=O)Nc3cc(F)ccc3F)cc2OC[C@@H](C)N(C(=O)c2ccccn2)C[C@@H]1C,1.08 ± 0.11
21,C/C=C/c1ccc([C@H]2[C@@H](CO)N(S(=O)(=O)CC)[C@H]2CN(C)C(=O)CC)cc1,1.0222 ± 0.00032
22,COc1ccc(S(=O)(=O)Nc2ccc3c(c2)CC(=O)N([C@H](C)CO)C[C@H](C)[C@@H](CN(C)C(=O)Nc2c(C)noc2C)O3)cc1,0.994 ± 0.086
